The other results are listed elsewhere or left out. At the low end of the ranking the order means little.

The target of the experiment is SIX1-Q177R homeodomain (UniProt Q15475). In words: universal protein binding microarray. The conditions noted are these: Universal all-10-mer PBM (8x60K, AMADID 030236), 300 nM GST-tagged protein, Alexa Fluor 488 anti-GST; buffer, salt, pH and temperature not stated; high values mean tight binding; most listed sequences are background and not binding sites; double strand, one strand shown.
As for AGGTTGAC, the binding signal was -0.045 E-score.

Consider CGGTGAGA, for which the binding signal was 0.177 E-score.

With AACGGTGC, the binding signal was 0.184 E-score.

In the case of CATTAGGA, the binding signal is -0.00029 E-score.

CGCACGTC: the binding signal is -0.157 E-score.

For TCTAAGAA, the binding signal was -0.14 E-score.

With GTATCGAC, the binding signal turned out to be 0.22 E-score.

CGTCAACA: the binding signal came out at 0.148 E-score.

On to ACTCAGCG, for which the binding signal is 0.0365 E-score.

In the case of ACTTGTAG, the binding signal was -0.0582 E-score.

GGACTCGA: the binding signal stood at 0.0718 E-score.

Consider GCCTTAAC, for which the binding signal was -0.0842 E-score.

With GAGCGGAC, the binding signal is -0.272 E-score.

With CCCAGCCC, the binding signal was -0.0988 E-score.

As to AGTCCAAA, the binding signal is -0.181 E-score.

As to GGAGCCAA, the binding signal is -0.113 E-score.

For the sequence AGTTGGAG, the binding signal was -0.135 E-score.

On to TCCGGTAA, for which the binding signal was -0.0446 E-score.

As for ATACACCC, the binding signal amounted to 0.46 E-score.

On to CTCTATGC, for which the binding signal turned out to be 0.0703 E-score.

For ACTACGAC, the binding signal turned out to be 0.0445 E-score.

As to AGCACGCA, the binding signal was determined as 0.24 E-score.

In the case of AAACGACA, the binding signal amounted to 0.0832 E-score.

Take TACGAGGA: the binding signal is -0.0197 E-score.

Take ACAGATGT: the binding signal was -0.191 E-score.

Turning to TCCACCGA, the binding signal is -0.0307 E-score.

Consider AGCAGAGG, for which the binding signal is -0.199 E-score.

In the case of GACCAACA, the binding signal worked out at 0.137 E-score.

As to CTTAACCA, the binding signal is -0.0657 E-score.

CAGTTCTA: the binding signal was -0.0553 E-score.

ATCCGACC: the binding signal is 0.153 E-score.

On to CCGACTGA, for which the binding signal was -0.102 E-score.

As for CGATAGCC, the binding signal is -0.263 E-score.

For the sequence CTGTGCTA, the binding signal is -0.169 E-score.

As for AACTTTAC, the binding signal is -0.0885 E-score.

Turning to ATCGTGAC, the binding signal was -0.104 E-score.

Regarding GGCGGCAA, the binding signal is -0.176 E-score.

For ATCAGGTC, the binding signal is -0.134 E-score.

Turning to AAATAGGT, the binding signal is 0.0342 E-score.

With AATTTCCG, the binding signal was -0.191 E-score.

On to ATCCAAAT, for which the binding signal was -0.0907 E-score.

Take GCGTGATA: the binding signal came out at 0.173 E-score.

As to ATCGGTGG, the binding signal is -0.0698 E-score.

As to TGCGTTAA, the binding signal is -0.252 E-score.

In the case of ACGGACTG, the binding signal is -0.137 E-score.

On to ATGGATTG, for which the binding signal was determined as 0.0187 E-score.

Turning to AGGCCCTA, the binding signal was -0.169 E-score.

In the case of AGCCCGGG, the binding signal was determined as 0.157 E-score.

In the case of ATACATCG, the binding signal is -0.00199 E-score.

Consider GCGCCTTA, for which the binding signal is -0.0142 E-score.

Regarding GGGGTACC, the binding signal is 0.247 E-score.

As to CTAAGTGA, the binding signal was -0.0574 E-score.

Consider CTCTGAGA, for which the binding signal was -0.0504 E-score.

For AGAGACGC, the binding signal was -0.15 E-score.

On to AAGGGCAC, for which the binding signal is 0.0871 E-score.

Consider AAAGGAGC, for which the binding signal was -0.196 E-score.

For the sequence AGGGGTTA, the binding signal worked out at 0.21 E-score.

Turning to ATTAACAC, the binding signal was found to be 0.416 E-score.

ATACAGAA: the binding signal is 0.0109 E-score.

On to CAAAATAA, for which the binding signal is 0.012 E-score.

For TGAAGCCA, the binding signal was -0.194 E-score.

In the case of CGGCGCAA, the binding signal is -0.0162 E-score.

In the case of GGCGGCCA, the binding signal is -0.171 E-score.

For the sequence GTGTTTTA, the binding signal came out at 0.361 E-score.

For ATGACTAG, the binding signal is -0.0498 E-score.

Regarding AACCGTTA, the binding signal is -0.175 E-score.

In the case of CGCAGTTC, the binding signal is -0.1 E-score.

For ACCTGCTA, the binding signal worked out at 0.143 E-score.

Consider GCTCGGCA, for which the binding signal was -0.0943 E-score.

As for CATATCTA, the binding signal is -0.145 E-score.

Regarding CTCGGCAG, the binding signal was -0.0144 E-score.

In the case of AAGCTACC, the binding signal was -0.13 E-score.

For ACGTTTCT, the binding signal is -0.0772 E-score.

Take TTTAAAAA: the binding signal was -0.218 E-score.

In the case of ACACAAAG, the binding signal was 0.236 E-score.

Take ACGACGAT: the binding signal was -0.014 E-score.

In the case of CACTAAGG, the binding signal turned out to be 0.0945 E-score.

Take GAAGTGGC: the binding signal was -0.138 E-score.

As to CGGAGTGA, the binding signal worked out at 0.216 E-score.

Turning to CCAACGCA, the binding signal turned out to be 0.0509 E-score.

Turning to AGTTAAAA, the binding signal was -0.24 E-score.

ACAGACCA: the binding signal is -0.0889 E-score.

As for CAGTGGGC, the binding signal is 0.00397 E-score.

Consider CCCAAGGC, for which the binding signal is -0.137 E-score.

CATCGCAA: the binding signal is -0.0859 E-score.

As for ACTGGGGA, the binding signal is 0.0343 E-score.

For AGCAGGGC, the binding signal is -0.216 E-score.

AAATGGAT: the binding signal is -0.0529 E-score.

Take CCCTATGC: the binding signal was -0.154 E-score.

As to AAGAGTTC, the binding signal was 0.0159 E-score.

On to ATTTGCAC, for which the binding signal is -0.077 E-score.

AGAGACTC: the binding signal is -0.103 E-score.

As for CCTGAGCA, the binding signal turned out to be 0.1 E-score.

Consider ACGGCCAA, for which the binding signal was -0.0618 E-score.

Consider AATGTGAT, for which the binding signal was -0.00758 E-score.

Consider GACTCTGA, for which the binding signal was -0.00413 E-score.

ACTCACTC: the binding signal was -0.112 E-score.

In the case of CGTCCCTC, the binding signal was -0.131 E-score.

Consider AAAAGAAT, for which the binding signal was -0.232 E-score.

As for CCGTTAGG, the binding signal was -0.115 E-score.

Take CGCACTAA: the binding signal is -0.073 E-score.

Consider CTGGGCGA, for which the binding signal is -0.0186 E-score.

As to CGTGTAAG, the binding signal was 0.428 E-score.

For the sequence ATGCGTCA, the binding signal was -0.275 E-score.

Consider AATGATGT, for which the binding signal was -0.11 E-score.

With GCCATTCA, the binding signal was -0.0713 E-score.

Turning to CCAAGGAC, the binding signal was -0.073 E-score.

CAAGGGAC: the binding signal is -0.255 E-score.

With ATTTGTCA, the binding signal was -0.193 E-score.

TAATACTA: the binding signal is -0.0498 E-score.

Take ACACAAAA: the binding signal was 0.106 E-score.

Consider ACCGCGCA, for which the binding signal is 0.155 E-score.

For the sequence ACCACAGC, the binding signal was found to be 0.00756 E-score.

With ACCCCCCG, the binding signal came out at 0.329 E-score.

In the case of ACCCGACG, the binding signal turned out to be 0.208 E-score.

In the case of AGACTAAA, the binding signal is -0.242 E-score.

With ATCTTAAT, the binding signal was -0.144 E-score.

With ACGAACCA, the binding signal is -0.0244 E-score.

As for CTGTACAG, the binding signal is -0.29 E-score.

GCTGTCTA: the binding signal is -0.165 E-score.

Take CTTCGGTC: the binding signal is -0.126 E-score.

With GGGGAATA, the binding signal was 0.0194 E-score.

Regarding ACTAGGTG, the binding signal worked out at 0.218 E-score.

In the case of AGGGACAG, the binding signal is -0.174 E-score.

For ACAAACAA, the binding signal was -0.143 E-score.

For CTAGGCGC, the binding signal was -0.105 E-score.

On to GAGTGTTA, for which the binding signal was found to be 0.407 E-score.

With GATCAGCA, the binding signal is -0.179 E-score.

Regarding GATCTTAA, the binding signal was -0.146 E-score.

Regarding ATGTGAGA, the binding signal was -0.119 E-score.

As to GAACACCC, the binding signal is 0.471 E-score.

AGCACGCT: the binding signal was -0.0486 E-score.

For GTAGCATA, the binding signal amounted to 0.0538 E-score.

Take CATTGGGC: the binding signal was -0.19 E-score.

For ACAATTAA, the binding signal is -0.23 E-score.

Turning to CCGAGAAG, the binding signal amounted to 0.0266 E-score.

With GACCCTAA, the binding signal stood at 0.0347 E-score.

Turning to CTACACCC, the binding signal turned out to be 0.482 E-score.

In the case of AACGCGTG, the binding signal stood at 0.146 E-score.

CTCTCACC: the binding signal was 0.133 E-score.

AGGTACGC: the binding signal stood at 0.0656 E-score.

As to CTCAAATA, the binding signal is -0.166 E-score.

Regarding AGGTTGTA, the binding signal was -0.0243 E-score.

With GTGTGGGA, the binding signal worked out at 0.286 E-score.

As to AGGACCCA, the binding signal is -0.0116 E-score.

As to AACTCGAC, the binding signal turned out to be 9.5e-05 E-score.

Regarding CCCGCCCC, the binding signal turned out to be 0.179 E-score.

On to AGTGAGAT, for which the binding signal turned out to be 0.0662 E-score.

Turning to AAGTGCGG, the binding signal is -0.071 E-score.

As to ATACCTTA, the binding signal is -0.002 E-score.

For GCGCACCC, the binding signal was found to be 0.236 E-score.

For the sequence CGCTATTC, the binding signal is -0.0772 E-score.

TGGGTTAA: the binding signal worked out at 0.146 E-score.

Take CGAGTCCC: the binding signal was -0.0879 E-score.

Turning to ACGACCGG, the binding signal is 0.0864 E-score.

Regarding AAAGGGTG, the binding signal is 0.317 E-score.

On to ACTCGCGC, for which the binding signal came out at 0.132 E-score.

On to AGCTTTTA, for which the binding signal is -0.161 E-score.

Take CTTCAGGA: the binding signal was -0.233 E-score.

Consider CTTATGAA, for which the binding signal is -0.228 E-score.

With ACGTACTC, the binding signal is -0.0199 E-score.

Regarding CGGTTACA, the binding signal worked out at 0.251 E-score.

Turning to ACTGCAGC, the binding signal is -0.113 E-score.

As for AGGGCTTA, the binding signal is -0.13 E-score.

Take TCCGCAGA: the binding signal was -0.2 E-score.

In the case of ACGAGTAT, the binding signal was -0.12 E-score.

In the case of CGCGTACC, the binding signal amounted to 0.0759 E-score.

For GGGCGCGA, the binding signal is -0.0683 E-score.

For GCATATGC, the binding signal was -0.159 E-score.

On to CACCAACG, for which the binding signal turned out to be 0.335 E-score.

As to AACACGTA, the binding signal worked out at 0.343 E-score.

With AACTGTAG, the binding signal is -0.0282 E-score.

For the origin of these results see paper PMC10668032.
